In publication PMC12136788:
Some of the results follow.

T1: UNK ZnF1-6 (called full-length) (human, UniProt Q9C0B0 30-357)
T1 sequence: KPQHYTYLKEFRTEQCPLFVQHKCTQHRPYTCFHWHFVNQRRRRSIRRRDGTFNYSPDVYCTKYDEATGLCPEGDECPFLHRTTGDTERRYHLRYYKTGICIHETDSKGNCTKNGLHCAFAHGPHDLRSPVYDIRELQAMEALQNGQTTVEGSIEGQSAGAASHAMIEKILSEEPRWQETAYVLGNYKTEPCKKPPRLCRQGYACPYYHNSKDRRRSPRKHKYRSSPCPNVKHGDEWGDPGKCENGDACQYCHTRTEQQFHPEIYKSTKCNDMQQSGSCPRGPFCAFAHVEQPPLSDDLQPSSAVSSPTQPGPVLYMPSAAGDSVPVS

B1: chr11:112070992:112071283:-|CDS|ENSG00000150773|control|control|control (ssRNA)
RNA: GGGAGUUCUACAGUCCGACGAUCAAUAAAAGGAAGCAUUCAAAGAAUGAAACAAAAUCUGAUGGGAAUCCAAACUGAUUCCAUAGAUUUAAGAGAAAAAAUGAGAAGGGGUAAGUUGAUGAUUGUAAAUGGAAAAUUAAACUGCAACAGAGGAUUGAGCAUCA
B2: chr8:6757792:6757893:+|3pUTR|ENSG00000155189|msi1|FALSE|unique (ssRNA)
RNA: GGGAGUUCUACAGUCCGACGAUCAUUUAUUACAACUUGACAGCUCCAAGCUCUUAUUACUAAAGUAUUUAGUAUCUUGCAGCUAGUUAAUAUUUCAUCUUUUGCUUAUUUCUACAAGUCAGUGAAAUAAAUUGUAUUUAGGAACAACAGAGGAUUGAGCAUCA
B3: chr3:81489889:81489990:-|3pUTR|ENSG00000114480|msi1|FALSE|unique (ssRNA)
RNA: GGGAGUUCUACAGUCCGACGAUCUUGGUCUAAAUUAUGAGGUACCAAGAUUGUUUCUUUGUUUCUUUUUUUCAAAUUGUGUUUAGAAAUACUGUAAUAAAUAUGCAGUAGUGAUAUAAAGAAUUAUAUCCAAGGUAAUAUAAACAACAGAGGAUUGAGCAUCA
B4: chrX:51895182:51895295:+|CDS|ENSG00000179222|unk|FALSE|unique (ssRNA)
RNA: GGGAGUUCUACAGUCCGACGAUCAGUUCACAGCCCCCAACUGCCAAUGAGAUGGCUGACAUUCAGGUUUCAGCAGCUGCCGCUAGGCCUAAGUCAGCCUUUAAAGUCCAGAAUGCCACCACAAAAGGCCCAAAUGGUGUCUAUCAACAGAGGAUUGAGCAUCA
B5: chr22:46679111:46679212:+|3pUTR|ENSG00000075240|msi1|FALSE|unique (ssRNA)
RNA: GGGAGUUCUACAGUCCGACGAUCAGGGCCCGGCAGUGCCCAAGGAUGGGUCCGGGGCCUCGGGGCCAAUGAGCGCCUCUUCCUAGGUGCUGGGAUUCAGUCCCCAAACACAGCGGGAGGGGUCCCUGGGGCAGAUGGGGCUUUCAACAGAGGAUUGAGCAUCA
B6: chr5:147393764:147393895:-|3pUTR|ENSG00000113657|msi1_unk|total|mutant (ssRNA)
RNA: GGGAGUUCUACAGUCCGACGAUCUCCAAUGUUACGCUCGCUUGCCCCGCUUUACGAAUAUUGCUUUGUUUUCUGUUUAUGCACCGCCUUGAUUUGUUUGACUCCCCUCCCCCCAUUUACAUGCAUGCAAUCAGACAGGCCACUCAACAGAGGAUUGAGCAUCA
B7: chr1:2308404:2308505:+|3pUTR|ENSG00000157933|unk|FALSE|unique (ssRNA)
RNA: GGGAGUUCUACAGUCCGACGAUCUUCUUUGCUUUUGUUUUCUUUGCGGUUGUUCUGUGUGCAUGGAUUCCACACCUCUGCCGUAGGUAGAUCCGUCAGCGGGCAUUAUUACCGUGUCUUGUAAAGGGUCGGUUUUGUUAUGCACAACAGAGGAUUGAGCAUCA
B8: chr10:25598329:25598431:+|CDS|ENSG00000151025|unk|FALSE|unique (ssRNA)
RNA: GGGAGUUCUACAGUCCGACGAUCAUCGAUGUUACAGAAGUCUCUCAGUGUCAUAGCAAGCGCCAAGGAGAAGACUCUUGGAUUAGCUGGGAAAACCCAAACAGCAGGUGUGGAAGAACGCACUAAAUCCCAGAAACCUUUGCCCAACAGAGGAUUGAGCAUCA
B9: chr9:37441208:37441377:-|CDS|ENSG00000168795|unk|total|mutant (ssRNA)
RNA: GGGAGUUCUACAGUCCGACGAUCAGGGCCGGUGAUAUCCAUAUUUUGGAAGUCACAAAUAACCCCGAGCAUAAGUCCACUUUCCGUAUUUCGAAUUUUCUUAACAAGAGCAGAGGAAAUAACUUUACUGCAAAUCAGAACAAUCAACAGAGGAUUGAGCAUCA
B10: chr19:13097725:13097826:+|3pUTR|ENSG00000008441|msi1|FALSE|unique (ssRNA)
RNA: GGGAGUUCUACAGUCCGACGAUCUGAGCCAGACGCCAACUUGACCCUCACCAGCAUUAUCAGGAGCGCGCUCAGCAAGUUGGUAGUUUCCUCCCCCCUUUCCCGGCGCCCCUCCCGCCCCCAUUCAACAUCUCUCAUCCUAUCCAACAGAGGAUUGAGCAUCA
B11: chr1:20742972:20743075:-|3pUTR|ENSG00000127483|unk|FALSE|unique (ssRNA)
RNA: GGGAGUUCUACAGUCCGACGAUCUAACCCUUUCUUAUUUGUAUUUGUUUUAGUAUUGUGAAGUUGUGUUAAAUAGUACUAGCUAGAAAUACAAAUUUCUGGUUAUCAUUUCUCUUCCCUGUGGCACUUGACAUUUUAAUUGUCCAACAGAGGAUUGAGCAUCA
B12: chr22:49888080:49888186:+|3pUTR|ENSG00000100426|unk|total|mutant (ssRNA)
RNA: GGGAGUUCUACAGUCCGACGAUCUGGCUUAUUAACAGGGAAGAAGCUUGUUAUAUUCCAGUUGUAAGAACCGCCUCCGUGUUCCGAUUUUUUUAUGACCGGGAAGAUGCGGCCAUCACUGGGAUAUUUUCAAAUCCCAAGGACCAACAGAGGAUUGAGCAUCA
B13: chr7:139284418:139284519:+|CDS|ENSG00000157741|unk|total|mutant (ssRNA)
RNA: GGGAGUUCUACAGUCCGACGAUCGCAAUGAAUGUACCUGCCAGCAGAGGCCGCAACCUUAACUCAAGCGGAGCUAACCGGACCCGUCUGUCUGGGGGAACAGGAAGUGGAACACAGGGUGCUACCAAACCAUUGUCUACUCCACAACAGAGGAUUGAGCAUCA
B14: chr14:73275881:73276001:-|3pUTR|ENSG00000133961|unk|total|mutant (ssRNA)
RNA: GGGAGUUCUACAGUCCGACGAUCAAAUAUUAUAUAUAUCAAAAGCCAAAAUCUUUAUUUUUAUGCAUUCCGAAUAUUUUAAACCGUUCUCAGAUAUUAAGAAGUUGUAUGAGUUGUAAGUAAUCUUGCCAAAGGUAAAGGGGCCAACAGAGGAUUGAGCAUCA

Target: T1, UNK ZnF1-6 (called full-length)
Assay: nsRBNS (natural sequence RNA bind-n-seq); RBNS binding buffer (assumed for nsRBNS): 25 mM Tris pH 7.5, 150 mM KCl, 3 mM MgCl2, 0.01% Triton X-100, 500 ug/ml BSA, 20 U/ml SUPERase-In, 4 C; UNK is unkempt and MSI1 is Musashi-1; names of the RNAs are library labels; protein concentration not given here; high values mean tight binding

Binder | binding signal [enrichment R]
B1 | 0.74
B2 | 0.788
B3 | 1.8
B4 | 0.588
B5 | 0.754
B6 | 0.884
B7 | 0.457
B8 | 0.641
B9 | 0.258
B10 | 0.939
B11 | 1.33
B12 | 0.562
B13 | 0.688
B14 | 1.13
